The structures appear in SMILES notation. Hit rate of the full screen: of about 310,000 compounds, about 2,200 (0.71%) showed an effect of 50% or more. Effects have a minus sign here. This is one part of the list.

The values that follow come from article PMC4336329 (PLoS ONE, 2015).

Sequence of human ether-à-go-go-related gene (hERG) potassium channel (Q12809 whole entry, looked up): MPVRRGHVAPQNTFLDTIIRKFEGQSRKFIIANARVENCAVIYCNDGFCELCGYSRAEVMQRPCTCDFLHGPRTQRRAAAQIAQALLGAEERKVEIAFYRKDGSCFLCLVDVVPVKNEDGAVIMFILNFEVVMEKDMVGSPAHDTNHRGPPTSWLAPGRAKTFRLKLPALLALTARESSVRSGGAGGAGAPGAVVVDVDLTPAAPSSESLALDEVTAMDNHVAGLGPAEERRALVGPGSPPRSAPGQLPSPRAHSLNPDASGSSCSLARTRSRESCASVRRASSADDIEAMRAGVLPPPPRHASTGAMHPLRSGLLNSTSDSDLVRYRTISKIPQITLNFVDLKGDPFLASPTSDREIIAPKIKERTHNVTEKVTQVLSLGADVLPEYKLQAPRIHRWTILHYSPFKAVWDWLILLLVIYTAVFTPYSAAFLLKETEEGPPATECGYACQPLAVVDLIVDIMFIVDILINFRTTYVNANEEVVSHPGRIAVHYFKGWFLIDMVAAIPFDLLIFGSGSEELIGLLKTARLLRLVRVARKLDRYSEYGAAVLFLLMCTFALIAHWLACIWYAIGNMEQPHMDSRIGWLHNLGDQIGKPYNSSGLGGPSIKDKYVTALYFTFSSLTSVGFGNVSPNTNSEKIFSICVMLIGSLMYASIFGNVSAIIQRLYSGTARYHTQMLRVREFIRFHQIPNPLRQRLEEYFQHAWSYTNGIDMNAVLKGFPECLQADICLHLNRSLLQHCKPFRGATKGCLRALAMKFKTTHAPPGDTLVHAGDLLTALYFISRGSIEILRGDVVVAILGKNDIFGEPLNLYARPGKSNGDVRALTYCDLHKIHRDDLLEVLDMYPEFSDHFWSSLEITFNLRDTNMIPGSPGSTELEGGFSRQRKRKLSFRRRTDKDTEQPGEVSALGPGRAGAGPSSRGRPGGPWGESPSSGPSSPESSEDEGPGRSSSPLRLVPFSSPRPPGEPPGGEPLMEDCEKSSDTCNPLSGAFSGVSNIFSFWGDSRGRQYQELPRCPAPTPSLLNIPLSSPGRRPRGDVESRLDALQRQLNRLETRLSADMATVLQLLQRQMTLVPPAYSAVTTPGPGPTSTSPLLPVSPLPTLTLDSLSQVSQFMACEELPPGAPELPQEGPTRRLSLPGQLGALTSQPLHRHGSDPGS

The test addresses human ether-à-go-go-related gene (hERG) potassium channel (human, UniProt Q12809). The test is described as follows: primary screen, population patch clamp on CHO cells stably expressing hERG.
For the compound `COc1ccccc1C(=O)NNC(=O)c1cccc(F)c1`, the “hERG current change (%, negative = inhibition) at 1uM” value was 9.95%.
Then `CCOC(=O)Cc1csc(NS(=O)(=O)c2ccc3ccccc3c2)n1`, with 59%; and `O=C(Cn1cnc([N+](=O)[O-])n1)c1ccccc1`, with 16.3%; and `COc1cc(OC)cc(C(=O)Nc2ccc(S(=O)(=O)Nc3nc(C)cc(C)n3)cc2)c1`, with 18.6%.
On to `O=C(Cn1nnc(-c2ccccc2)n1)N=Nc1c(O)[nH]c2ccccc12`, for which the “hERG current change (%, negative = inhibition) at 1uM” value turned out to be 18.9%.
To `O=C(NCc1ccccc1CN1CCCC1)c1cc2ccccc2o1` belongs -31.4%.
To `O=C(Nc1ccc(Cl)cc1)Nc1nc(-c2sccc2Br)cs1` belongs 6.5%; to `Cc1ccc(NC(=O)CSc2nnc(C)n2-c2ccccc2)cc1`, 4.28%.
To `COc1ccc(OC)c(/C=N/NC(=O)C(=O)N/N=C/c2cc(OC)ccc2OC)c1` belongs 18%.
Turning to `COc1ccc(CNC(=O)CCS(=O)(=O)c2cccc3nonc23)cc1`, the “hERG current change (%, negative = inhibition) at 1uM” value came out at 4.85%.
Then `O=C1OC(c2cccc([N+](=O)[O-])c2)C2(CCCC2)C(=O)C12CCCCC2` (centres unmarked), with -0.72%; and `CCOc1ccc(N(C)S(=O)(=O)c2ccc3[nH]cc(C(=O)NCCOC)c(=O)c3c2)cc1`, with 8.46%; and `Cc1ccc(-c2ccc(CCC(=O)O)n2-c2cccc(O)c2)cc1`, with 12.7%.
To `CS(=O)(=O)N(CC(=O)O)Cc1cccc(CN(CC(=O)O)S(C)(=O)=O)c1` belongs 10.1%.
Consider `Cc1ccc(CN(C)C(=O)c2c(C)nn(-c3ccccc3)c2C)cc1`, for which the “hERG current change (%, negative = inhibition) at 1uM” value was 10.9%.
As for `C=C1N2CCC(CC2)C1(O)c1ccc(C)cc1.Cl` (centres unmarked), the “hERG current change (%, negative = inhibition) at 1uM” value is given as 18.7%.
To `N/C(=N\[N+](=O)[O-])N1CCN(C(=O)OC2CCCC2)CC1` belongs 14.9%; to `CCCCN(C)CCCNC(=O)c1ccc2c(c1)NC(=O)C(N1CCOCC1)S2` (centres unmarked), 14.5%; to `CC[C@@]12C(=O)N(c3ccc(C)cc3)C(=O)N1[C@H](c1ccc(OC)cc1)[C@@H]1C(=O)N(C(C)(C)C)C(=O)[C@@H]12`, 9.78%.
To `CCOc1cc2c(cc1OCC)-n1cccc1C(c1cccc(F)c1F)NC2.Cl` (centres unmarked) belongs 8.61%.
To `Cc1ccc(S(=O)(=O)Nc2cccc(C(=O)N3CCC(C(N)=O)CC3)c2)cc1` belongs 6.61%.
On to `CC1CCN(Cc2c(C(=O)N/N=C/c3ccc(C(F)(F)F)cc3)nnn2-c2nonc2N)CC1`, for which the “hERG current change (%, negative = inhibition) at 1uM” value is 9.75%.
Regarding `CCOC(=O)CC(=O)CSc1nc(-c2ccccc2)cc(-c2ccc(Cl)cc2)c1C#N`, the “hERG current change (%, negative = inhibition) at 1uM” value amounted to 9.5%.
To `COc1cccc(C(=O)NCC(=O)N/N=C/c2ccc3c(c2)OCO3)c1` belongs 18%; to `O=C(NCCC1CCCCN1S(=O)(=O)c1ccc(Cl)cc1)C(=O)NCc1ccco1` (centres unmarked), 4.17%; to `Cc1ccc2c(c1N)C(=O)c1ccccc1C2=O`, 13.6%.
Take `CCc1ccc(-c2nnn(CC(=O)N(C3CCCC3)C3CCS(=O)(=O)C3)n2)cc1` (centres unmarked): the “hERG current change (%, negative = inhibition) at 1uM” value came to 10.5%.
Then `CCCc1ccc(C(=O)NNc2cccc(C)c2)cc1`, with 11.8%; and `Cc1ccc(NC(=O)CNc2cccc(S(=O)(=O)N3CCCC3)c2)cc1F`, with 15.5%.
Take `O=C(CN(c1ccc(F)cc1)S(=O)(=O)c1ccc2c(c1)OCCO2)NCc1ccccn1`: the “hERG current change (%, negative = inhibition) at 1uM” value stood at 4.73%.
For `CCC1(c2ccc(Cl)cc2)NC(=O)N(Cc2ccc(C(=O)OC)cc2)C1=O` (centres unmarked), the “hERG current change (%, negative = inhibition) at 1uM” value is listed as 5.45%.
Then `CC1CCN(C(=O)c2cc(-c3ccccc3O)on2)CC1`, with 15%; and `O=C(NCc1ccccn1)C1CC(c2ccc(Cl)c(Cl)c2)=NO1` (centres unmarked), with 11.8%.
As for `Cc1ccccc1C1C(C#N)=C2N=C(N)c3c(sc4c3CCCCC4)N2C2=C1C(=O)CCC2` (centres unmarked), the “hERG current change (%, negative = inhibition) at 1uM” value came out at 3.55%.
Turning to `CCC(C)NC(=O)Cn1cc(S(=O)(=O)N2CCN(c3ccccc3F)CC2)c2ccccc2c1=O` (centres unmarked), the “hERG current change (%, negative = inhibition) at 1uM” value stood at 14.4%.
As for `Cc1ccc(C)c(NC(=O)CN2C(=O)c3ccccc3C2=O)c1`, the “hERG current change (%, negative = inhibition) at 1uM” value came to 12.8%.
Then `Cc1ccc(Nc2nc(-c3sc(NC(=O)c4ccc([N+](=O)[O-])cc4)nc3C)cs2)cc1`, with 15.9%; and `CCC1=Nc2cc(C(=O)NCCCN3CCN(C)CC3)ccc2Sc2ccccc21`, with 17.8%.
For `O=C(Nc1ccc(-n2ccc(C(F)(F)F)n2)cc1)Nc1cccc(Cl)c1`, the “hERG current change (%, negative = inhibition) at 1uM” value is listed as 11.3%.
To `Brc1ccccc1/C=N/Nc1ccc2ccccc2n1` belongs 8.41%; to `Cc1cc(OCC(=O)NNC(=S)NC(=O)c2ccc(Br)o2)ccc1Cl`, 10.2%; to `CCOC(=O)C1CCN(c2nc(-c3ccccc3)nc3c2oc2ccccc23)CC1.Cl`, 10.9%.
To `COCCNC(=O)C(C)OC(=O)c1nsc(Cl)c1Cl` (centres unmarked) belongs 5.62%; to `CN(C(=O)COC(=O)c1ccc2c(c1)OCO2)C1CCS(=O)(=O)C1` (centres unmarked), 11.3%.
Then `CCCC1(c2ccccc2)NC(=O)NC1=O` (centres unmarked), with 18.7%; and `CCn1c(=O)c(C(=O)CN2CCN(S(=O)(=O)c3ccc(C)cc3C)CC2)c(N)n(Cc2ccccc2)c1=O`, with 7.38%; and `O=[N+]([O-])c1cc(CN2CCCCCC2)ccc1O`, with 9.7%.
Take `CCN1CCN(C(=O)C2c3cc(OC)c(OC)cc3C(=O)N3CCc4ccccc4C23)CC1` (centres unmarked): the “hERG current change (%, negative = inhibition) at 1uM” value came out at 13.6%.
Then `O=C(CCCCCCC(=O)NCc1ccccc1)NCc1ccccc1`, with 17%; and `COc1ccc(NC(=O)CNC(=O)Cn2c(C)cc3ccccc3c2=O)c(OC)c1`, with 5.15%.
Then `CCOC(=O)C1CCN(C(=O)C2CCN(S(=O)(=O)c3cccc4nsnc34)CC2)CC1`, with 8.4%.
To `Cc1sc(Nc2ccc([N+](=O)[O-])cc2)nc1-c1c(C)n(C)n(-c2ccccc2)c1=O` belongs 2.25%; to `O=C(NC1CCCCC1)N1CCC(c2nc3ccc(Cl)cc3[nH]2)CC1`, 6.29%.
With `COc1ccc(-c2nc3c(Br)c(N)c(Br)cc3o2)cc1`, the “hERG current change (%, negative = inhibition) at 1uM” value is recorded as 12.2%.
Then `COc1ccc(OCCn2nnc(-c3ccc(Cl)cc3)n2)cc1`, with 17.8%; and `CC(=O)c1ccc(NC(=S)N2CCCCCC2)cc1`, with 12.8%.
For `C[N+]1([O-])[C@@H]2Cc3cc4c(cc3[C@@H]1Cc1cc3c(cc12)OCO3)OCO4` (some centres unmarked), the “hERG current change (%, negative = inhibition) at 1uM” value is given as 11.1%.
For `O=S1(=O)CCS(=O)(=O)C1c1ccccc1`, the “hERG current change (%, negative = inhibition) at 1uM” value came out at 5.85%.
To `O=C(c1ccco1)c1cn(Cc2ccccc2Cl)c2ccccc12` belongs 19.7%.
As to `O=C(NNc1cc(Cl)cc(Cl)c1)C1CCC1`, the “hERG current change (%, negative = inhibition) at 1uM” value is reported as 22.4%.
With `C/C(=N/NC(=O)c1cccc(N2CCCC2=O)c1)c1ccncc1`, the “hERG current change (%, negative = inhibition) at 1uM” value was 14.1%.
With `CCOc1cc(C)c(Cl)cc1S(=O)(=O)NC1CC(C)(C)NC(C)(C)C1`, the “hERG current change (%, negative = inhibition) at 1uM” value was 15.1%.
Regarding `CC(=O)Nc1ccc(NC(=O)CSc2ccc(-c3cccs3)nn2)cc1`, the “hERG current change (%, negative = inhibition) at 1uM” value came out at 7.59%.
On to `Cc1ccc(S(=O)(=O)N/N=C/c2ccccc2O)cc1`, for which the “hERG current change (%, negative = inhibition) at 1uM” value was 4.35%.
Then `O=c1[nH]ncc(N/N=C\c2ccc(O)cc2O)c1Cl`, with 9.3%.
Regarding `Cc1nc2sccn2c(=O)c1S(=O)(=O)Nc1ccc(N2CCN(S(C)(=O)=O)CC2)cc1`, the “hERG current change (%, negative = inhibition) at 1uM” value is given as 7.16%.
To `CCOC(=O)c1c(-c2ccc(-c3ccccc3)cc2)csc1NC(=O)CNCCN(C)C.Cl` belongs 9.74%; to `CC(=O)N1c2ccc(S(=O)(=O)NCCC(=O)Nc3ccc(OC(F)(F)F)cc3)cc2CC1C` (centres unmarked), 10.5%; to `O=Cc1ccc(OCC(=O)NCC2CCCO2)cc1` (centres unmarked), 13.7%.
On to `CC1(C)CC(=O)C=C(NCCO)C1`, for which the “hERG current change (%, negative = inhibition) at 1uM” value is 4.04%.
To `COCC(=O)N1CCC(Oc2ccc(C(=O)NCCCC3CCCC3)cc2)CC1` belongs 7.47%; to `NNC(=O)Cn1nc2n(c1=O)-c1ccccc1SC2`, 18.4%; to `COc1ccc(/C=C(\NC(=O)c2ccco2)C(=O)NCc2ccco2)cc1`, 14.1%.
To `C#CCNC(=O)C1=C[C@@H](c2ccc(C#C)cc2)C[C@@H](OCCCCO)O1` belongs 12.3%; to `O=C(c1ccc([N+](=O)[O-])o1)N1CCN(Cc2ccccc2)CC1`, 6.21%; to `Cc1cc(C)n(C(CC(=O)O)C(=O)O)n1` (centres unmarked), 10.4%.
Then `CC(C)NC(=O)COc1coc(CN2CCN(c3ccccc3F)CC2)cc1=O`, with 12.5%; and `O=C(NCC1CCCO1)c1cc2n(n1)C(C(F)(F)F)CC(c1ccc(F)cc1)N2` (centres unmarked), with -3.61%; and `CCc1nnc(NC(=O)CN2C(=O)CCC2=O)s1`, with 11.6%.
For `O=C(Nc1cccc(C(=O)O)c1)/C(=C\c1ccc2c(c1)OCO2)NC(=O)c1ccccc1Cl`, the “hERG current change (%, negative = inhibition) at 1uM” value is recorded as 9.69%.
Consider `CCCN1C2=NCCN2c2cc(C)c(C)cc21.Cl`, for which the “hERG current change (%, negative = inhibition) at 1uM” value is reported as -4.41%.
Then `Cc1cccn2c(=O)c3cc(C(=O)N4CCN(C(=O)c5ccco5)CC4)n(C)c3nc12`, with 1.79%.
To `COc1cc(C(=S)N2CCOCC2)ccc1OC(=O)c1ccccc1[N+](=O)[O-]` belongs 11.8%; to `Fc1ccc(-c2nc3c(-c4ccccc4)cnn3cc2CCN2CCOCC2)cc1`, 7.29%; to `COc1ccc(CCNC(=O)CCc2ccccc2)cc1OC`, 9.65%.
For the compound `Cc1ccc(CN2Cc3cccc4c3[C@@H](CC2=O)[C@H](O)[C@H](O)C4)cc1`, the “hERG current change (%, negative = inhibition) at 1uM” value is listed as 13.3%.
